Data taken from PubChem BioAssay AID1508624 (National Center for Advancing Translational Sciences (NCATS), 2021).
The campaign covered roughly 48,000 compounds. About 120 (0.25%) were called active. About 4% were inconclusive and are not listed. Calls come from the whole dose curve; as a rule, active = well fitted activation curve with a large enough effect; inconclusive = small, poorly fitted or top-dose-only effect, or another doubt; inactive = no such curve, though single readings can be large or run the other way. Some of the results follow.

Assay: Primary qHTS for Identification of Small Molecule Activators of Huntingtin-Antisense Promoter Activity; note: nearly all actives have a fitted effect of over 55% in size
Settings: HEK293 HTT-AS promoter firefly luciferase reporter, 24 h; series mostly up to 57.5 µM; activity change, positive = activation: at the top concentration
In short: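 Firefly luciferase readout (Dual-Glo, 10 min RT) after 24 h, 37 °C compound exposure (final up to 57.5 uM) of HEK293 reporter cells cultured 24 h beforehand; PTC124 at 50 uM final as control inhibitor; activity scaled vehicle 0%, zero RLU -100%.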
Potency is the fitted concentration of half-maximal effect.

| SMILES | activity change, positive = activation | Potency |
| --- | --- | --- |
| CNC(=O)c1c(NC(=O)c2ccc(S(=O)(=O)N3CCC(C)CC3)cc2)sc2c1CCC2 | inactive: -11.8% | – |
| Cc1cccc(C)c1OCC(=O)NCC1(N(C)C)CCCCC1 | inactive: -3.31% | – |
| Cc1ccc(N2C(=O)CSC23C(=O)N(CC(=O)NCc2ccccc2)c2ccccc23)cc1C (configuration not stated) | inactive: -11.3% | – |
| COCCCNC(=O)c1ccc(NC(=O)c2nsc3ccccc23)cc1 | inactive: -39% | – |
| COc1ccccc1CNC(=O)C1CCC(CNS(=O)(=O)c2ccc3c(c2)CCCC(=O)N3)CC1 (configuration not stated) | inactive: -3.18% | – |
| COc1ccc(CNC(=O)c2ccc(N3CCCC3)c(NC(=O)NCc3ccc(F)cc3)c2)cc1 | inactive: 15.2% | – |
| CCN(CC)CCNC(=O)c1ccc(Cn2c(SCc3ccccc3)nc3cccnc32)cc1 | inactive: 25.7% | – |
| Cc1ccc2c(Sc3ccc(Cl)cc3)c(C(=O)N3CCC(C)CC3)[nH]c2c1 | inactive: -10.4% | – |
| COc1ccc(CNS(=O)(=O)c2cnc(N)nc2)c(OC)c1 | inactive: -8.78% | – |
| CS(=O)(=O)c1ccc(-c2nnc(NC(=O)c3ccc4c(c3)OCCO4)o2)cc1 | inactive: 3.08% | – |
| CCC1CN(C(=O)N2CCC(C(=O)NCCN(CC)CC)CC2)c2cc(C)ccc2O1 (configuration not stated) | inactive: -1.59% | – |
| CCc1nc2ccccc2n1CCCCOc1ccc(C)cc1 | inactive: -37.3% | – |
| CCOc1cc(CNC(=O)c2sc3ncnc(N(C)C4CCCCC4)c3c2C)ccc1OC | inactive: -35.7% | – |
| CC(=O)c1ccc(NC(=O)Cn2cc(S(=O)(=O)Cc3cccc(Cl)c3)c3ccccc32)cc1 | inactive: -31.2% | – |
| Cc1ccccc1N1CC(c2nc3ccccc3n2CCC2CCCCC2)CC1=O (configuration not stated) | inactive: -49% | – |
| COc1ccc(CNC(=O)CCn2cccn2)cc1 | inactive: -4.07% | – |
| Cc1ccc(C(C)C)c(OCC(=O)NCC2(N(C)C)CCCCC2)c1 | inactive: -23.5% | – |
| COc1ccc(CCn2cc3c(c2-c2ccc(Br)cc2)c(=O)n(C)c(=O)n3C)cc1OC | inactive: -16% | – |
| COc1ccc(-c2nc(C)c(CCNC(=O)C(=O)Nc3ccccc3OC)s2)cc1 | inactive: 1.95% | – |
| O=C(NCCc1ccccc1Cl)c1ccc(Cn2c(=O)c3cccn3c3cccnc32)cc1 | inactive: -53.1% | – |
| CCc1ccccc1NC(=O)c1c(NC(=O)c2ccccc2)sc2c1CCCC2 | inactive: -2.22% | – |

| SMILES | activity change, positive = activation | Potency |
| --- | --- | --- |
| Cc1ccc(-c2nnc(SCc3ccccc3C)o2)cc1 | – | active: 14.1 µM |
| COc1ccc(S(=O)(=O)Nc2ccc3c(c2)N(C(C)=O)CCC3)cc1F | inactive: -54.6% | – |
| CCOC(=O)C1CCC(CN(Cc2cccc(Br)c2)S(=O)(=O)c2ccc(C)cc2)CC1 (configuration not stated) | inactive: -45.6% | – |
| CCc1ccc(C(=O)c2cn(CC(=O)Nc3ccc4c(c3)OCO4)c3cc(OC)c(OC)cc3c2=O)cc1 | inactive: -23.1% | – |
| O=C(COc1ccc(Cl)cc1)Nc1ccc(-c2nc3ccccc3s2)c(O)c1 | inactive: -30.8% | – |
| Cc1ccc(C)c(N2CCN(C(=O)C3CCCN(S(=O)(=O)c4ccc5c(c4)oc(=O)n5C)C3)CC2)c1 (configuration not stated) | inactive: -33.2% | – |
| CCOc1cc(OCC)c(C(=O)CCC(=O)O)cc1OCC | inactive: -4.63% | – |
| COc1cc(-c2cc(OC)c3c(C)oc(C)c3c(=O)c2)ccc1OC(=O)c1ccccc1Cl | inactive: -38.6% | – |
| COc1ccc(OC)c2sc(N3CCN(C(=O)C(C)(C)C)CC3)nc12 | inactive: 18.3% | – |
| COc1cc(Cl)c(NC(=O)CCS(=O)(=O)c2cc3c(cc2Cl)NC(=O)CO3)c(OC)c1 | inactive: -1.01% | – |
| Cc1cc(C)c2c(=O)cc(CSCC(=O)Nc3ccccc3Cl)[nH]c2c1 | inactive: -9.69% | – |
| Cc1ccc(-c2cc3ncc4c(n3n2)-c2cc(C)ccc2OC4)cc1 | inactive: -6.87% | – |
| Cc1cccc(Oc2nc3c(C)cccn3c(=O)c2/C=C(\C#N)c2nc3ccccc3[nH]2)c1 | inactive: 0% | – |
| Cc1ccc2nc(N3CCN(c4cccc(Cl)c4)CC3)c(-n3nc(C)cc3C)nc2c1 | inactive: -6.82% | – |
| CCOC(=O)C1=C(CN2CCC(C)CC2)NC(=O)NC1c1ccc(F)cc1 (configuration not stated) | inactive: -16.3% | – |
| Cc1c(Cl)cccc1NC(=O)c1cnc2sc(N3CCOCC3)nn2c1=O | inactive: -13.8% | – |
| CCN(c1ccccc1)S(=O)(=O)c1ccc(NC(=O)c2cc(=O)c3cc(C)cc(C)c3o2)cc1 | inactive: 6.7% | – |
| CCC(=O)N1c2ccccc2CC1C(=O)NCCc1ccccc1C (configuration not stated) | inactive: -12.1% | – |
| O=C(CSc1cn(CC(=O)N2CCOCC2)c2ccccc12)Nc1ccccc1F | inactive: -7.45% | – |
| Cc1ccc(S(=O)(=O)Nc2ccc3c(c2)CCCN3C(=O)c2cccs2)cc1 | inactive: -16.3% | – |
| Cc1cc2ccccc2n1CCNC(=O)c1cccc(Br)c1 | inactive: -15.6% | – |

| SMILES | activity change, positive = activation | Potency |
| --- | --- | --- |
| O=C(Nc1ccc2nn(-c3ccccc3)nc2c1)c1cc2ccccc2o1 | inactive: 6.96% | – |
| COc1ccc2oc(=O)cc(CN3CCN(Cc4ccccc4)CC3)c2c1 | inactive: -28.9% | – |
| COc1ccc(OC)c(CCNC(=O)CCCn2c(=O)c3cccn3c3ccccc32)c1 | inactive: -11.8% | – |
| CC(C)Oc1ccc(CNC(=O)CCCN2C(=O)c3cccnc3Oc3ccc(Cl)cc32)cc1 | inactive: -21.7% | – |
| CCN(C(=O)c1cc2c(s1)-c1c(C)cccc1OC2)c1ccccc1F | inactive: -11.8% | – |
| CCC(=O)N1CCc2cc(Br)cc(S(=O)(=O)Nc3ccc(C)cc3C)c21 | inactive: -22.8% | – |
| COc1ccc(CC(=O)N2CCc3cc(OC)c(OC)cc3C2COc2ccc(OC)cc2)cc1 (configuration not stated) | inactive: -19.6% | – |
| CCOC(=O)c1scc(-c2ccccc2)c1S(=O)(=O)Nc1cc(OC)cc(OC)c1 | inactive: -18.5% | – |
| O=C(Cn1cc(SCc2c(F)cccc2Cl)c2ccccc21)N1CCCCCC1 | inactive: 14.8% | – |
| COc1ccc(-n2nc(C(=O)N(C)c3cc(C)ccc3C)c3c4ccccc4n(C)c3c2=O)cc1Cl | inactive: 8.67% | – |
| Cc1ccc(C)c(NC(=O)c2cnn(-c3cccc(F)c3)c2C2CCN(C(=O)OC(C)(C)C)CC2)c1 | inactive: -40.1% | – |
| CCOc1ccc(NS(=O)(=O)c2ccc(-c3cc(C)no3)s2)cc1 | inactive: -35.1% | – |
| COc1ccc(-c2c(-c3ccc(O)cc3O)n[nH]c2C)cc1 | inactive: -40.6% [at 116 µM, percent change from vehicle, -100% = no light] | – |
| CCCC(=O)N(c1ccc2oc3c(c2c1)CCCC3)S(=O)(=O)c1cc(C)ccc1C | inactive: -9.97% | – |
| O=C1CC(c2nc3ccccc3[nH]2)CN1c1cccc(Cl)c1 (configuration not stated) | inactive: -23.7% | – |
| COC(=O)c1ccc(CSc2nc3c([nH]c4ccccc43)c(=O)n2-c2ccc(Cl)cc2)o1 | inactive: -34.8% | – |
| CCCCNc1nc2c(c(=O)n(Cc3ccc(Cl)cc3)c(=O)n2C)n1C | inactive: -30.9% | – |
| Nc1nnc2c(n1)[nH]c1ccccc12 | inactive: 7.19% | – |
| COc1cccc(CSc2nc3cc(C(=O)NC4CCCC4)ccc3c(=O)n2Cc2ccccc2)c1 | inactive: -1.34% | – |
| O=C(CSc1nc2ccccc2n1Cc1ccccc1)N1CCN(c2ccc(F)cc2)CC1 | inactive: -19.7% | – |
